Reference: PubChem BioAssay AID1745853 (National Center for Advancing Translational Sciences (NCATS), 2022)
The list shows a part of the results. These are further read-outs of the screen, such as a control signal, another cell line or another target. No call is given for them.

Assays:
Assay in all cases: Primary Screen for Target Class Profiling of Small Molecule Inhibitors of Methyltransferases
[1] = biological target: Glycine N-methyltransferase (Homo sapiens) (UniProt Q14749); conditions: purified enzyme, MTase-Glo SAH luminescence; measured here: GNMT inhibition; at 40 µM; stronger effect = lower value
Method in brief: (§1)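 Each enzyme was assayed with SAM and its substrate. SAH formation detected by MTase-Glo luminescence; single-point 40 uM screen[…].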

[2] = biological target: Guanidinoacetate N-methyltransferase (Homo sapiens) (UniProt Q14353); conditions: purified enzyme, MTase-Glo SAH luminescence; measured here: GAMT inhibition; at 40 µM; stronger effect = lower value
Method in brief: as §1

[3] = biological target: Histamine N-methyltransferase (Homo sapiens) (UniProt P50135); conditions: purified enzyme, MTase-Glo SAH luminescence; measured here: HNMT inhibition; at 40 µM; stronger effect = lower value
Method in brief: as §1

[4] = biological target: Nicotinamide N-methyltransferase (Homo sapiens) (UniProt P40261); conditions: purified enzyme, MTase-Glo SAH luminescence; measured here: NNMT inhibition; at 40 µM; stronger effect = lower value
Method in brief: as §1

[5] = biological target: Phenylethanolamine N-methyltransferase (Homo sapiens) (UniProt P11086); conditions: purified enzyme, MTase-Glo SAH luminescence; measured here: PNMT inhibition; at 40 µM; stronger effect = lower value
Method in brief: as §1
On the % scale 0 is the no-effect control and ±100 the full control effect.

SMILES | activity change, negative = inhibition [1] | activity change, negative = inhibition [2] | activity change, negative = inhibition [3] | activity change, negative = inhibition [4] | activity change, negative = inhibition [5]
COc1ccc(CCc2nc3c(C)c(-c4c(C)noc4C)c(C)cc3n2CCN2CCOCC2)cc1 | -18.5% | -10.8% | -3.79% | -62% | -7.37%
Cc1cc2c(cc1S(=O)(=O)NCc1ccccc1)n(C)c(=O)n2C | -3.59% | 2.9% | -7.35% | -10.3% | -4.37%
O=C(O)CC(CCc1ccccc1)OC1OC(CO)C(O)C(O)C1O (stereo not given) | 2.58% | 1.79% | 8.48% | -7.54% | 2.46%
Cc1ccc(CSc2nnc3n(CC(C)C)c(=O)c4ccc(C(=O)NC(C)C)cc4n23)cc1 | -1.14% | -4.54% | 10.6% | -3.79% | 0.557%
COc1ccc(OC)c(-c2nnc3n(Cc4ccc(F)cc4)c(=O)c4ccccc4n23)c1 | -6.94% | 4.64% | -2.41% | 0.215% | -2.9%
O=C(O)[C@H](Cc1ccccc1)Oc1ccc(-c2ccccc2)cc1 | -17.8% | -5.08% | 10.1% | -23.5% | -0.922%
CCN1C(=O)c2ccccc2C1Nc1ccc(OCCN2CCCCC2)cc1 (stereo not given) | 3.27% | 5.2% | -61.1% | -8.81% | 5.89%
O=C(Cn1c(=O)oc2cc(S(=O)(=O)N3CCCC3)ccc21)NC1CCN(Cc2ccccc2)CC1 | 13.4% | 0% | 4.25% | 7.2% | 2.13%
CC(C)NC(=O)c1ccc2c(=O)n(Cc3ccccc3)c3nn(Cc4ccc(Cl)cc4)c(=O)n3c2c1 | 5.71% | 6.47% | 7.51% | 2.23% | 2.43%
CC(=O)N1c2ccc(S(=O)(=O)N(C)CC(=O)N3CCN(c4cc(C)ccc4C)CC3)cc2CC1C (stereo not given) | 4.89% | 1.17% | 6.76% | -3.49% | 4.58%
CC[C@H](C(=O)Nc1ccccc1N1CCCC1)c1ccccc1 | 2.63% | -2.95% | -4.77% | -6.56% | -8.98%
COc1ccc(-c2n[nH]n3c2nc(=O)c2ccc(C(=O)NC(C)c4ccccc4)cc23)cc1 (stereo not given) | -6.8% | 0.214% | 1.63% | -2.08% | -4.06%
CC(C)c1cccc2c(-c3ccccc3)cc(-c3ccc(-c4ccc(C(=O)O)cc4)[nH]3)nc12 | -12.8% | -22.9% | 4.03% | -83% | -8.8%
CC(C)OCCCNC(=O)CCc1nnc2n(Cc3ccccc3Cl)c(=O)c3ccccc3n12 | -2.81% | 0.361% | 10.7% | 10.9% | 2.2%
NC(=O)c1ccc2c(c1)C1C=CCC1C(c1ccc(Cl)cc1)N2 (stereo not given) | -26.2% | 0.016% | -15.8% | -18.1% | -18.3%
O=C(Cn1ccc2cc(S(=O)(=O)N3CCCC3)ccc21)NCCc1cccs1 | 1.6% | 4.72% | 6.82% | 0.33% | -1.85%
CCOC(=O)c1cc2n(n1)CC(C)(C(=O)NCCC(C)C)N(c1ccc(C)cc1)C2=O (stereo not given) | 4.25% | 0% | 7.86% | 7.95% | 0.525%
Cc1noc(-c2ccco2)c1C(=O)NCc1cccc(Cl)c1 | -7.13% | -1.86% | -3.26% | -8.81% | 12.1%
COc1cccc(S(=O)(=O)N2CCC(OCCOc3ccccc3)CC2)c1 | 4.4% | 2.66% | 16.6% | 5.05% | 1.64%
Cc1ccc(CNC(=O)C2(C)Cn3nc(C(=O)NCCC4=CCCCC4)cc3C(=O)N2C)cc1 (stereo not given) | 3.23% | 0.867% | 3.81% | 5.65% | 3.8%

SMILES | activity change, negative = inhibition [1] | activity change, negative = inhibition [2] | activity change, negative = inhibition [3] | activity change, negative = inhibition [4] | activity change, negative = inhibition [5]
CC1=C2C(O)C(=O)OC(c3ccoc3)C2(C)CCC1O (stereo not given) | -0.18% | 1.62% | 3.75% | -11.8% | 2.34%
Clc1cccc(Cl)c1NC1=NCCN1 | 3.94% | 14.3% | 12.4% | -3.12% | 7.7%
CC(CN)(c1ccccn1)N1CCOCC1 (stereo not given) | -3.99% | -5.32% | -16.4% | -7.82% | -2.55%
CCCn1c(=O)c2ccccc2n2c(=O)n(CC(=O)Nc3ccc(OC)c(OC)c3)nc12 | -4.78% | 4.96% | 3.34% | 1.79% | 1.73%
CC(NC1CCC2(CCNCC2)CC1)c1ccc(S(C)(=O)=O)cc1 (stereo not given) | -4.92% | -7.2% | -10.6% | -11.2% | -10.5%
CCCCS(=O)(=O)N1CC(F)(F)C[C@H]1c1nnc(C)o1 | -0.354% | -3.52% | -0.827% | -9.57% | 11.1%
O=C(Nc1ccccc1)c1cc2n(n1)CCN(C(=O)COc1ccccc1)C2 | -6.61% | -4.72% | -1.75% | -8.72% | -3.42%
CN(C)S(=O)(=O)c1ccc2c(c1)/C(=C/c1cc3c([nH]1)CCCC3)C(=O)N2 | -4.61% | 7.66% | 3.43% | -7.65% | -8.71%
Cc1cnc(C2CC2)n1CCNC(=O)NC1CCCCC1 | -5% | -7.13% | -14.5% | -13% | 5.52%
CCN(CC)C(=O)N1CCC(c2noc(COc3ccc(F)cc3)n2)C1 (stereo not given) | -6.13% | -11.5% | -2.84% | -16.2% | -12%
COCCN1C(=O)c2c(NC(C)=O)c3cc(F)ccc3n2CC1(C)C(=O)NC1CCCC1 (stereo not given) | 2.43% | 0% | 3.84% | 0.667% | -3.39%
CC1CCCC[C@H]2C(=O)C=C[C@H](O)[C@@H]2CC(=O)O1 (stereo not given in full) | -3.43% | 1.32% | 2.22% | -10.2% | 1.88%
C[C@@H](O)[C@H](NC(=O)c1ccc(C#Cc2ccc(CN3CCOCC3)cc2)cc1)C(=O)NO | -3.91% | 5.78% | 11.3% | -10% | 3.44%
CC(C)[C@H]1CCC(CO)=C[C@@H]1/C=C(\CO)C(=O)O | 0% | 1.37% | 7.68% | -8.17% | 1.92%
CC(=O)OC[C@@]12[C@@H](OC(C)=O)C[C@@H](C)[C@](C)([C@@H]3C[C@H]4C=CO[C@H]4O3)[C@H]1CCC[C@]21CO1 | 0.522% | 3.75% | 6.38% | -10.3% | -0.224%
Cc1ccsc1CCNS(=O)(=O)c1ccc2[nH]c3c(c2c1)CCCC3 | -3.94% | 1.6% | -8.74% | -12.8% | -4.25%
Cc1ccc(Cn2c(=O)c3ccc(C(=O)NC(C)C)cc3n3c(=O)n(CC(=O)c4ccccc4)nc23)cc1 | -1.99% | 0.788% | -4.55% | -0.736% | -2.68%
O=c1c2c(CO)c(-c3ccccc3)nn2ccn1Cc1cc(=O)n2ccccc2n1 | -4.22% | -7.24% | 0.517% | -2.59% | 0.409%
CN(CCc1noc(C2CN(S(=O)(=O)c3ccccc3)C2)n1)C(=O)c1ccncc1 | -1.15% | 3.68% | 0.779% | -0.465% | 12.8%
CCn1c(=O)n(CC)c2cc(S(=O)(=O)Nc3cccc(F)c3)ccc21 | 0.176% | 5.55% | 7.52% | 9.54% | 1.72%
